Measured values: patent publication US6410566B1, “Cyclic amine derivatives and their use as drugs” (Teijin Limited, priority 2000, dated 2002)
Some entries share one result that the patent states for a list of compounds. At least one structure is not confirmed: it was looked up by name or label, or the drawing left a doubt.

Tests used:
THP-1 cells = test: Inhibition of cell chemotaxis caused by MCP-1; format: cell-based, human; settings: MCP-1 20 ng/mL, read-out: inhibition of cell migration IC50
[1] = target: T1, binding of human MCP-1 to THP-1 cells (Homo sapiens, UniProt P41597); test: Inhibition of binding of [125I]-labeled baculovirus expressed human MCP-1 to THP-1 cells (Method 2)
T1 construct: endogenous in cells; host or cells: THP-1 (human monocytic leukemia cell line), whole cells
T1 sequence (P41597 1-360 isoform P41597-2): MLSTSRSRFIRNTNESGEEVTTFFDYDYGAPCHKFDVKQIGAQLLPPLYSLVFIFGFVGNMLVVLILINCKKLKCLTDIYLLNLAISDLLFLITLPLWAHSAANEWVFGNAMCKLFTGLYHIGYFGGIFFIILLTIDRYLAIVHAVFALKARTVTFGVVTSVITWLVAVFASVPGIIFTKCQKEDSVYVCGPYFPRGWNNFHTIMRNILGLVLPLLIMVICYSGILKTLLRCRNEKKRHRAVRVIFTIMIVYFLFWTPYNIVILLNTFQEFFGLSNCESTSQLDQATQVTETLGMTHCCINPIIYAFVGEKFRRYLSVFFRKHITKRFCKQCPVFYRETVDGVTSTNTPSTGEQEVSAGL
From the text: 1. Construction of recombinant baculovirus carrying the human MCP-1 gene
Based on the previously published human MCP-1 gene sequence (for example T. Yoshirnura et al., FEBS Lett., 1989, 244, 487-493), two synthetic DNA primers (5′-[…]-3′ and 5′-[…]-3′) flanked by restriction enzyme sites were used to amplify a DNA fragment from cDNA derived from human endothelial cells (purchased from Kurabow Co.); the amplified fragment was cut with the restriction enzymes (PstI and XbaI), ligated into a transfer vector pVL1393 (Invitrogen Co.), and the resulting vector was co-transfected along with infectious baculovirus into Sf-9 insect cells and the supernatant was plaque assayed to yield human MCP-1 gene baculovirus recombinant.
2. Synthesis of [^125I]-labeled human MCP-1 expressed in baculovirus
Using the method of K. Ishii et al. (Biochem Biophys Research Communications, 1995, 206, 955-961), 5×10^6 Sf-6 insect cells was infected with 5×10^7 PFU (plaque forming units) of the above human MCP-1 recombinant baculovirus and cultured for 7 days in Ex-Cell 401 medium. The culture supernatant was affinity purified using a heparin Sepharose column (Pharmacia Co.) and then further purified using reverse phase HPLC (Vydac C18 column) to prepare purified human MCP-1. The purified human MCP-1 was protein labeled by Amersham Co. using the Bolton Hunter method to yield [^125I]-labeled baculovirus expressed human MCP-1 (specific activity 2000 Ci/mmol).
3-2. Measurement of inhibition of binding of [^125I]-labeled baculovirus expressed human MCP-1 to THP-1 cells (Method 2)
Human monocytic leukemia cell line THP-1 was suspended in assay buffer (50 mM HEPES, pH 7.4, 1.0 mM CaCl2, 5.0% mM MgCl2, 0.5% BSA) to give a cell suspension of a concentration of 1×10^7 cells/mL. The test compound was diluted in the assay buffer and used as the test compound solution. [^125I]-labeled human MCP-1 described above was diluted in assay buffer to 1 mCi/mL and used as the labeled ligand solution. In a 96 well filter plate (Millipore Co.), 25 μL of test compound solution, 25 μL of labeled ligand solution and 50 μL of cell suspension were aliquoted into each well in this order, stirred (total reaction volume 100 μL), and incubated for one hour at 18° C.
After the reaction, the reaction solution was filtered, and the filter was washed twice with 200 μL of cold PBS (200 μL of cold PBS was added and then filtered). The filter was air-dried and 25 μL of liquid scintillator was added into each well. The radioactivity retained by the cells on the filter were measured using TopCount (Packard Instrument Co.).
To calculate the ability of test compound to inhibit binding of human MCP-1 to THP-1 cells, non-specific binding determined by adding 100 ng of unlabeled human MCP-1 in place of the test compound was subtracted, while the counts with no test compound added was taken as 100%.
Inhibition (%)={1−(A−B)/(C−B)}×100
(A, counts with test compound added; B, counts with 100 ng of unlabeled human MCP-1 added; C, counts with [^125I]-labeled human MCP-1 added).

Row | SMILES | IC50 (THP-1 cells) | inhibition of MCP-1 binding to THP-1 cells ([1]; Method 2, at 1 μM) | inhibition of MCP-1 binding to THP-1 cells ([1]; Method 2, at 10 μM)
1 | Nc1ccc(Cl)cc1C(=O)NCC(=O)NCC1CCN(Cc2ccc(Cl)cc2)CC1 [compound 1043] | < 100 nM | > 80% | > 80%
2 | Nc1ccc(I)cc1C(=O)NCC(=O)NCC1CCN(Cc2ccc(Cl)cc2)CC1 [compound 1244] | < 100 nM | > 80% | 
3 | Cc1ccc(CN2CCC(NC(=O)CNC(=O)c3cc(SC#N)ccc3N)C2)cc1 (stereo not drawn) [compound 1416] | < 100 nM | > 80% | 
4 | Cc1noc(C)c1CN1CCC(NC(=O)CNC(=O)c2cc(OC(F)(F)F)ccc2N)C1 (stereo not drawn) [compound 1595] | < 100 nM | > 80% | 
5 | COc1cc(CN2CCC(NC(=O)CNC(=O)c3cc(OC(F)(F)F)ccc3N)C2)ccc1O (stereo not drawn) [compound 1900] | < 100 nM | > 80% | 
6 | Nc1cc(F)c(F)cc1C(=O)NCC(=O)NCC1CCN(Cc2ccc(Br)cc2)CC1 [compound 1796] | < 100 nM | > 80% | 
7 | Nc1ccc(C(F)(F)F)cc1C(=O)NCC(=O)NC1CCN(Cc2ccc(Br)cc2)C1 (stereo not drawn) [compound 1660] | < 100 nM | > 80% | 
8 | Nc1cc(Cl)ccc1CN1CCC(CNC(=O)CNC(=O)c2cc(F)c(F)cc2N)CC1 [compound 1920] | < 100 nM | > 80% | 
9 | CSc1ccc(CN2CCC(CNC(=O)CNC(=O)c3cc(Cl)ccc3N)CC2)cc1 [compound 1570] | < 100 nM | > 80% | 
10 | C=Cc1ccc(CN2CCC(CNC(=O)CNC(=O)c3cc(F)c(F)cc3N)CC2)cc1 [compound 1799] | < 100 nM | > 80% | 
11 | CCc1ccc(CN2CCC(NC(=O)CNC(=O)c3cc(OC(F)(F)F)ccc3N)C2)cc1 (stereo not drawn) [compound 1898] | < 100 nM | > 80% | 
12 | Cc1noc(C)c1CN1CCC(NC(=O)CNC(=O)c2cc(C(F)(F)F)ccc2N)C1 (stereo not drawn) [compound 1594] | < 100 nM | > 80% | 
13 | Cc1ccc(CN2CC[C@@H](NC(=O)CNC(=O)c3cc(OC(F)(F)F)ccc3N)C2)c(C)c1 [compound 1698] | < 100 nM | > 80% | 
14 | Cc1ccc(CN2CCC(NC(=O)CNC(=O)c3cc(C(F)(F)F)ccc3N)C2)cc1 (stereo not drawn) [compound 1589] | < 100 nM | > 80% | 
15 | CCOc1cc(CN2CC[C@@H](NC(=O)CNC(=O)c3cc(C(F)(F)F)ccc3N)C2)ccc1O [compound 1802] | < 100 nM | > 80% | 
16 | CCCc1ccc(CN2CC[C@@H](NC(=O)CNC(=O)c3cc(C(F)(F)F)ccc3N)C2)cc1 [compound 1787] | < 100 nM | > 80% | 
